# Test results: the supplement of paper PMC11417369
# ± gives the standard deviation of the averaged measurements. The list shows a part of the results.
# Test system: PfAP2-I AP2 domain 3 (GST-tagged)
# Experiment: gcPBM binding intensity (ln(normalized median fluorescence intensity)); higher = stronger DNA binding
# How it was run: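 An Agilent 4 × 180k array of primer-extended double-stranded 36-bp intergenic genomic probes, with negative controls, was incubated for 1 h with GST-tagged P. falciparum DNA-binding domains expressed in E. coli. Alexa488 anti-GST antibody detected bound protein, scanned at 488 nm. Binding intensity is the highest Masliner-normalised natural-log median intensity across replicate spots of either probe orientation.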
row,Sequence,gcPBM binding intensity (ln)
1,AATGGTTATAATATATGTACATATAAATATACTGAA [XGTACX_site8533],7.75 ± 0.42
2,ATATAAGTACCTATAACACACATATATTATAAGTAT [CACACA_site7281],7.91 ± 0.48
3,TAGAATAAATTAATTACACACGGAATTATATATATA [CACACA_site1616],8.46 ± 0.6
4,TATAATAGTTCATAGGTGCAATATAATAAATTTATA [GTGCAC_site9573],11.2 ± 0.47
5,AAAAAAAAAAAAAAAAGTACATGAAAAAAAGAAGAA [XGTACX_site8384],8.7 ± 0.27
6,TATCATATATTATAGCGTACTTATTTATTTATTTAT [XGTACX_site1676],7.79 ± 0.36
7,TGTGTAAAAATCATGGGTACACATTTTGATACCAAT [XGTACX_site1779],8.16 ± 0.47
8,AATGAAAAGTAAAATACACACACATAATATAATTTA [CACACA_site8608],7.7 ± 0.5
9,AAACTTGACGAACACACACACACATATATAAAAAAA [CACACA_site6494],8.03 ± 0.37
10,ATAAATTAAAAACACACACACATCTGGATACCCCTA [CACACA_site5780],8.04 ± 0.4
11,TTTTTATAAAAAATTTACACTATATGACAGAAGTAA [XGTACX_negctrl_site481],7.71 ± 0.46
12,AAAAAAAAAAAAAAGAGTACTCATATAAAAATATAA [XGTACX_site6551],8.18 ± 0.2
13,GGTGGTAAAAAACCTGCATGTCGAAATATTAAATAC [TGCATGCA_site33],8.25 ± 0.78
14,AAGAAGAAACAAAACACACACAGTCTTCTTTTCTAT [CACACA_site3088],7.61 ± 0.85
15,GTATATGAATAATATTTTATGGTAATTTTTTTTTTT [XGTACX_negctrl_site512],7.29 ± 0.77
16,TACAGAATTGTATATAGTACATAAAACAATATATAT [XGTACX_site7275],7.89 ± 0.49
17,AATCGAAATCGTGCACGGACACATGCAGTAGCCGAG [XGTACX_site6001],9.82 ± 0.66
18,TTCCCCCCCAGACACACACACACATACATACCACAT [CACACA_site2305],10.3 ± 0.11
19,ATATATATACACAATAGTACGTGTAATATTATTATT [XGTACX_site2151],8.38 ± 0.7
20,TATACCTATAAATACACACACATATATAAATAAATA [CACACA_site6730],7.78 ± 0.37
21,TTTTCTTTTTGTTCGTGTACACACATGAAATTTATA [XGTACX_site3301],8.78 ± 0.68
22,AAACGTACATAATACACACACATGTATACATATAAA [CACACA_site2048],8.36 ± 0.22
23,ATTTCTTTTTTTTTTTTTTTTAATGTAAAACATTTT [CACACA_negctrl_site1462],7.57 ± 0.4
24,GAAGTTAGTGTTGACTGTACATATATATGTATATAT [XGTACX_site7243],8.04 ± 0.45
